# Values of other authors as cited in publication PMC11006913.
# Numbering of substitutions follows the chain as printed. This is one part of the list.
# Assays:
# Settings in all cases: PBM; conditions not shown; double strand, one strand shown; scale: upbm affinity estimate (log intensity, higher = more binding, comparable within an allelic series)
# [1] = biological target: ARX (Homo sapiens) (UniProt Q96QS3)
# [2] = biological target: ARX L343Q (Homo sapiens) (UniProt Q96QS3)
# [3] = biological target: ARX P353L (Homo sapiens) (UniProt Q96QS3)
# [4] = biological target: ARX P353R (Homo sapiens) (UniProt Q96QS3)
# [5] = biological target: ARX R332H (Homo sapiens) (UniProt Q96QS3)
# [6] = biological target: ARX T333N (Homo sapiens) (UniProt Q96QS3)
# [7] = biological target: T1, HESX1 E149K (Homo sapiens) (UniProt Q9UBX0)
# T1 sequence: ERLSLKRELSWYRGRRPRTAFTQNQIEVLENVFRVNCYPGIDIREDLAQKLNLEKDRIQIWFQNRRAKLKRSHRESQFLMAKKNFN
# [8] = biological target: T2, HESX1 N125S (Homo sapiens) (UniProt Q9UBX0)
# T2 sequence: T1 sequence with N31S, K55E
# [9] = biological target: T3, HESX1 R160C (Homo sapiens) (UniProt Q9UBX0)
# T3 sequence: T1 sequence with K55E, R66C
# [10] = biological target: HOXD13 I297V (Homo sapiens) (UniProt P35453)
# [11] = biological target: HOXD13 N298S (Homo sapiens) (UniProt P35453)
# [12] = biological target: HOXD13 S316C (Homo sapiens) (UniProt P35453)
# [13] = biological target: ISX (Homo sapiens) (UniProt Q2M1V0)
# [14] = biological target: ISX R83Q (Homo sapiens) (UniProt Q2M1V0)
# [15] = biological target: PROP1 R112Q (Homo sapiens) (UniProt O75360)
# [16] = biological target: PROP1 R99Q (Homo sapiens) (UniProt O75360)
# [17] = biological target: HOXD13 R306W (Homo sapiens) (UniProt P35453)
# [18] = biological target: HOXD13 I322L (Homo sapiens) (UniProt P35453)
# [19] = biological target: HOXD13 Q325K (Homo sapiens) (UniProt P35453)
# [20] = biological target: HOXD13 Q325R (Homo sapiens) (UniProt P35453)
Sequence,binding signal [1],binding signal [2],binding signal [3],binding signal [4],binding signal [5],binding signal [6],binding signal [7],binding signal [8],binding signal [9],binding signal [10],binding signal [11],binding signal [12],binding signal [13],binding signal [14],binding signal [15],binding signal [16],binding signal [17],binding signal [18],binding signal [19],binding signal [20]
TAATTATA [8-mer TAATTATA],12.9,11,12.4,10.9,11.1,12.1,11.7,12.9,10.4,12.3,12.5,12.1,15.3,14.1,12.7,12.2,–,–,–,–
TTAATTAA [8-mer TTAATTAA],13.2,10.8,12.8,10.7,11.2,12.5,12.1,14,10.4,–,–,–,15.5,15.7,12.9,12.3,11.5,–,–,–
CCAATTAA [8-mer CCAATTAA],13.2,11,12.8,10.8,11.3,12.4,12,13.3,10.4,12.5,12.7,12.4,15.5,15.2,13,12.6,11.6,11.4,10.9,11.5
ACCAATTA [8-mer ACCAATTA],13.1,11.1,12.9,10.9,11.3,12.4,12.2,13.7,10.5,–,–,–,15.5,15,13,12.7,–,–,–,–
GACCGCCC [8-mer GACCGCCC],10.1,10,10.1,9.95,10,10.2,9.87,7.84,9.99,–,–,–,–,–,–,–,–,–,–,–
CAATTAAA [8-mer CAATTAAA],12.9,10.8,12.3,10.6,10.9,12.1,11.5,12.1,10.2,12.3,12.7,12.2,15.2,14.7,12.7,12.1,11.7,11.5,10.6,11.2
TAATTACA [8-mer TAATTACA],13,11,12.5,10.9,11.1,12.1,11.7,12.6,10.5,–,–,–,15.2,13.9,12.8,12.3,–,–,–,–
CTAATTGA [8-mer CTAATTGA],13.2,10.8,12.9,10.6,11,12.2,11.8,12.9,10.2,–,–,–,15.4,14.7,12.9,12.4,–,–,–,–
CAATTAGC [8-mer CAATTAGC],13.2,10.9,12.9,10.7,11,12.2,11.9,12.7,10.3,–,–,–,15.5,14.7,12.9,12.5,–,–,–,–
GTAATTAC [8-mer GTAATTAC],13.1,11.2,12.7,11,11.3,12.2,11.8,12.7,10.6,–,–,–,15.2,13.9,12.9,12.5,–,–,–,–
AATTAATT [8-mer AATTAATT],13.2,10.9,12.7,10.7,11.2,12.4,11.8,12.5,10.3,–,–,–,15.4,15,13,12.3,–,–,–,–
CGAATTAG [8-mer CGAATTAG],12.7,10.7,12.3,10.6,10.9,11.6,–,–,–,–,–,–,–,–,–,–,–,–,–,–
ATAATTAA [8-mer ATAATTAA],13.2,11,12.6,10.9,11.1,12.3,11.9,13.5,10.4,12.2,12.4,12.1,15.6,14.7,12.8,12.3,11.6,11.5,11.6,11.9
GTAATTAA [8-mer GTAATTAA],13.2,11,12.7,10.8,11.1,12.3,11.8,13.2,10.4,–,–,–,15.4,14.8,12.9,12.3,–,–,–,–
CGGTCGCC [8-mer CGGTCGCC],10.3,10.1,10.2,10,10.1,10.2,–,–,–,–,–,–,–,–,–,–,–,–,–,–
ATTAATTA [8-mer ATTAATTA],13.3,11,12.9,10.9,11.3,12.6,12.1,13.8,10.5,12.4,12.6,12.3,15.6,15.3,13.1,12.5,11.8,11.5,11.5,11.9
AGTAATTA [8-mer AGTAATTA],13.2,11.1,12.8,10.9,11.2,12.3,11.8,13,10.4,–,–,–,15.4,14.5,12.9,12.4,–,–,–,–
CTAATTAA [8-mer CTAATTAA],13.3,11,13.1,10.9,11.2,12.7,12.1,13.7,10.3,12.3,12.5,12.2,15.5,15.6,12.9,12.5,–,–,–,12.1
CGCGCCCC [8-mer CGCGCCCC],10.1,9.96,10,9.88,10,10.1,9.79,7.86,9.98,9.2,9.12,9.2,–,–,–,–,9.19,9.16,9.29,9.2
AGCAATTA [8-mer AGCAATTA],12.8,10.9,12.3,10.7,11,11.9,11.7,12.3,10.4,–,–,–,15.2,14.1,12.8,12.3,–,–,–,–
